According to the antibiotic and cytotoxicity screens of Wong et al. (2023):
The list shows a part of the results.

system: S. aureus RN4220; test: growth inhibition call (relative growth <= 0.2); details: 50 µM

Growth inhibition call, inactive:
COc1ccc(S(=O)(=O)Nc2ccc3c(c2)CC(=O)N([C@@H](C)CO)C[C@@H](C)[C@H](CN(C)C)O3)cc1, CCOC(=O)CC(=O)N1CCSC1COc1ccccc1OC (centres undefined), Cc1noc(C)c1NC(=O)N(C)C[C@@H]1Oc2c(NC(=O)Nc3cccc4ccccc34)cccc2C(=O)N([C@H](C)CO)C[C@H]1C, O=C(O)CCCNC(=O)c1ccccn1, C=CCN1C(=O)[C@]2(O[C@H](CCO)[C@@H]([Si](C)(C)c3ccc(OC)cc3)[C@@H]2C)c2cc(N(C=O)c3ccccc3)ccc21, Cc1ccc(S(=O)(=O)N(C)C[C@H]2Oc3c(NC(=O)c4cnccn4)cccc3C(=O)N([C@H](C)CO)C[C@@H]2C)cc1, C[C@@H]1CCCCO[C@H](CN(C)C(=O)Nc2ccc(F)cc2)[C@H](C)CN([C@@H](C)CO)C(=O)c2cc(NC(=O)NC3CCCCC3)ccc2O1, CC(C)NC(=O)N(C)C[C@H]1Oc2ccc(NS(=O)(=O)c3ccc(F)cc3)cc2CC(=O)N([C@H](C)CO)C[C@@H]1C, O=C1O[C@@H](c2ccccc2)[C@@H](c2ccccc2)N2[C@@H](c3ccc(O)cc3)[C@]3(C(=O)Nc4ccc(C#CCCO)cc43)[C@@H](C(=O)N3CCCCCCC3)[C@H]12
